# Results reported in the supplement of paper PMC11417369.
# Some of the results follow.
# System: PfSIP2 AP2 domain 1 (GST-tagged)
# Assay: gcPBM binding intensity (ln(normalized median fluorescence intensity)); higher = stronger DNA binding
# In short: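 Probes on an Agilent 4 × 180k array were primer-extended, double-stranded and 36 bp long, taken from intergenic genomic regions, with negative controls added. GST-tagged P. falciparum DNA-binding domains from E. coli, about 25 μg on average, were applied to the array for 1 h in 1× PBS containing 1% milk, 0.2 mg/ml BSA, 0.5% salmon testes DNA and 0.03% Triton X-100. Binding intensity, obtained after Alexa488 anti-GST antibody detection and a 488 nm scan, is the highest Masliner-normalised natural-log median intensity across replicate spots of either probe orientation.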
row,Sequence,gcPBM binding intensity (ln)
1,AATAAAATACAAAAATGTACAAATATAATATACATA [XGTACX_site279],7.07
2,TAATAATATAAATATGCACACAAATTATTACCCAAA [CACACA_site8805],9.17
3,ATAAAATAAAACAACACACACGAATGTATAAATATA [CACACA_site4643],6.8
4,TAGATATATAGAATTACACACTTTTCTATAATATGA [CACACA_site6475],6.74
5,TAATATAAAATGATAAATGAATGTGATCATTTTATA [CACACA_negctrl_site1034],6.62
6,ACATACTCAAATAGCACACACATAAATAAAAATGTA [CACACA_site3864],7.24
7,ATATATATTTAAAACGCATGCCTTGTTATATATATA [TGCATGCA_site624],7.59
8,CATATATATTTTATATGTACATATATATTTTATATA [XGTACX_site8665],7.03
9,ATTACAAAAATATATAAACACACAAATATAATATAT [CACACA_site8962],7.04
10,ATAAAGATTTTCCAAGCATGCCACATAGTGAGATAC [TGCATGCA_site594],7.13
11,ATCATAAAAGTATACACACATACATACATATGTACA [CACACA_site2641],7.13
12,TTATATATTTTTACCATACACACATATAATAAATAT [CACACA_site3721],7.29
13,TAAATATATATATATGTACACACTCCAATACATATA [CACACA_site8858],7.4
14,TATATATATATTATATGTACATATTCCTATATATAC [XGTACX_site7071],9.06
15,ACTTTATATTTTGAACGTACAAAAAAAAAATTATGT [XGTACX_site5588],7.44
16,AACCATTAATTCTCTACACACTTTTATTTTATTTAG [CACACA_site1769],6.88
17,GCACATATATACATACATACATACATACATATGTAT [TGCATGCA_negctrl_site95],7.17
18,AAGTATGCATTATATACACACATACATTTATATATT [CACACA_site4242],7.02
19,TTGGTTATACAACACATGCACACGTAAATAAATATT [CACACA_site3841],7.48

row,Sequence,gcPBM binding intensity (ln)
1,ATTATGTTAAAAAGGCGTACATGTTATAAGGTCCTA [XGTACX_site344],7.7
2,TATATATAAAGAGAAACATGCAAAATGTGAATATTC [TGCATGCA_site377],6.88
3,TCCTTATAAATATATATATAATATATATATATATAT [CACACA_negctrl_site293],8.56
4,TATATATATATTTATACACACATTAGTGTAGACATG [CACACA_site8964],8.53
5,TTGTTCTAATATATTGCACACGTAAAAATATAGGTA [CACACA_site8195],7.49
6,ATATAATATATATGGTGTACATTTTTTAGTGCTATT [XGTACX_site1662],7.28
7,TAAAAGAATAAAAGTAGTACTTTTTTTTATATTAGA [XGTACX_site368],7.14
8,AAAAAGTGACTCCTTACACACTTTACATAATTTAGT [CACACA_site4606],6.92
9,TCTTTTTTTTTTTATTGTACAAGAAAAGGAAAAAAT [XGTACX_site3717],7.46
10,ATATTTTTATATTAGTGTACTTATTATAATGTATAG [XGTACX_site8185],7.31
11,ATAATATGTAATATTACACACAATTCATCATTTTTT [CACACA_site3159],6.91
12,ATATACACCGTTGAATGTACATAAATAATATTAATA [XGTACX_site2893],7.17
13,AGTACATTTTTTTTAATAGGAAAAAAAATATTTATT [TGCATGCA_negctrl_site575],6.85
14,AAGTATTATTTTTATGCATGTGAAGTGCAAAATAAA [TGCATGCA_site198],9.56
15,TTTTAAAGAAAATATTTTATCATTATTTTTTGTACT [CACACA_negctrl_site1648],6.66
16,TTTTAAAATTTTTTTTTTTTTTTTTTATGAACAAGT [GTGCAC_negctrl_site124],7.09
17,AATATTTTAAATATTGCATGCAATGAAAAATGTAAA [TGCATGCA_site139],7.09
18,TCTTATTTTTTTATATATACAAAGTTTTATATATAT [GTGCAC_negctrl_site314],7.27
19,GTTCAATCGGGTGTTACTTCAAACAAGGAACAACAA [TGCATGCA_negctrl_site471],7.19

row,Sequence,gcPBM binding intensity (ln)
1,ATAGTAAATATAAAAAGTACTGATTCTTAAATTGTT [XGTACX_site5972],7.04
2,TATTTTATTGTTGTTATACACACCATATAAAATATT [CACACA_site1630],6.98
3,ACTTGACACCAACACACACACATATATAAAAAAAAA [CACACA_site756],7.92
4,AACAAAAATGAAAAAACACACATAACATATATAAAT [CACACA_site740],6.94
5,AAAAAAAAAAAAAAAGTGCACTGAAAATATATTGAA [GTGCAC_site9395],10.9
6,TTTTTAATTATTTATATAACGATAATCCTTACATAA [TGCATGCA_negctrl_site180],6.96
7,ATAATATAAATAAAAACACACACAATCGTACATATA [CACACA_site9223],7.07
8,ATATATTGATATATGTGTACATAGCTTATTTCATTT [XGTACX_site1800],6.95
9,ATATAATATATGTAAGTGCGCTTATAAATAAAACGA [GTGCAC_site9841],8.11
10,TATATAGAAAACAAGGCATGCAAATAACAAATTGTG [TGCATGCA_site473],6.99
11,AAAAAAAAAAAAAAGACACACAATGTGAAATAATAA [CACACA_site804],7.04
12,AATATATTTCGAGATACACACATATATAAAAAAAAA [CACACA_site3398],7.14
13,AATAGAACAAATAAAACACACACATATATATATATA [CACACA_site8893],9.42
14,ATATATCACAATAAAATTTATAGAATTTTAAATAAG [TGCATGCA_negctrl_site437],6.94
15,AAAATAAAATAAAATACACACATACATACATACAAA [CACACA_site5366],7.1
16,CAATAAAGAGGGAATTGTACTTTAAATATCCCTCTT [XGTACX_site1991],6.86
17,ATATTATATATATACACACACACATGCATGCACATA [CACACA_site7917],8.98
18,TAAAATTTGCGATGCACACAGAATAGCTAATATGAC [CACACA_site2995],7.72
